{"source": "paper PMC4336329", "about": "(PLoS ONE, 2015)", "note": "Out of some 310,000 compounds screened, about 14,000 (4.5%) showed an effect of 50% or more. The effect is printed as a negative number. The list shows a part of the results.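 Also: peak tail current of the secondary pulse compared with the same well before compound.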"}
{"biological_target": "human ether-à-go-go-related gene (hERG) potassium channel (human, UniProt Q12809)", "sequence (Q12809 whole entry, looked up)": "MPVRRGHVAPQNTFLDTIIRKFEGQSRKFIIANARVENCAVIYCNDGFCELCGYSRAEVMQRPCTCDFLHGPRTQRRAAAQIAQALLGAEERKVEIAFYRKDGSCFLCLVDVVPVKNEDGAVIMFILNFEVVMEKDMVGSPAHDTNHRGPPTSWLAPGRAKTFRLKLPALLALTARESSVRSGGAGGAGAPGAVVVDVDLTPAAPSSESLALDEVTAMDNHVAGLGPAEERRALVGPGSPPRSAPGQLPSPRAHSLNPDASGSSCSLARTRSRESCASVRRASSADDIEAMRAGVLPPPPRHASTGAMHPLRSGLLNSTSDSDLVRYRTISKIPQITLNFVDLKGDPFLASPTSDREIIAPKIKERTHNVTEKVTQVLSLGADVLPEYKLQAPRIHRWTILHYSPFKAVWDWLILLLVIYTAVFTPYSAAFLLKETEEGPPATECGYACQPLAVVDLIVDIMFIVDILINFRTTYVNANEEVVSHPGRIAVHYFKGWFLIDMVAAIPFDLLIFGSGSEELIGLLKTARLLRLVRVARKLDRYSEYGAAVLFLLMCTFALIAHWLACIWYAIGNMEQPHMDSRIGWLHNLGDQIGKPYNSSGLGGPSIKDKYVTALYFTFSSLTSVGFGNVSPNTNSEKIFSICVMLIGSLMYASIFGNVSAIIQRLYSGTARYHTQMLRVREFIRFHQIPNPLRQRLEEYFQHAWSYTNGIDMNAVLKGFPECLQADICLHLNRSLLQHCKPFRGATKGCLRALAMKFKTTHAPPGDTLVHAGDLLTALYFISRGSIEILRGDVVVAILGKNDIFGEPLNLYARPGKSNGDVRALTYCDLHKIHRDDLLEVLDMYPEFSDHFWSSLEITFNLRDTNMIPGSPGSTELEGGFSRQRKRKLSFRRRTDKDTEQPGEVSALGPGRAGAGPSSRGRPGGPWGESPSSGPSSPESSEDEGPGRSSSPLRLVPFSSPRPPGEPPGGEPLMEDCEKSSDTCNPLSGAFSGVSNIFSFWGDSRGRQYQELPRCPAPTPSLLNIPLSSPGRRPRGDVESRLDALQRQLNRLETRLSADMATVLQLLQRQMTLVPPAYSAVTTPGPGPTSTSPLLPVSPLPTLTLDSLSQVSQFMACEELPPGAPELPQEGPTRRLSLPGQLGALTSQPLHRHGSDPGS", "assay": "primary screen, population patch clamp on CHO cells stably expressing hERG", "units": {"hERG current change (%, negative = inhibition) at 10uM": "%"}}
{"smiles": "CCCCCCC(=O)Oc1cccc(N2C(=O)C3CCCCC3C2=O)c1", "note": "(stereo not shown)", "hERG current change (%, negative = inhibition) at 10uM": 15.3}
{"smiles": "CCCCC/C=C\\C[C@H](O)/C=C/c1cccc(C[C@H](O)CCCCO)n1", "hERG current change (%, negative = inhibition) at 10uM": 5.04}
{"smiles": "O=C(Nc1sc(-c2ccccc2)cc1C(=O)O)c1ccccc1", "hERG current change (%, negative = inhibition) at 10uM": 35.2}
{"smiles": "CC1C(OC(=O)CCC(=O)NC(C)(C)CO)O[C@H]2OC3(C)CC[C@H]4[C@H](C)CCC1C24OO3", "note": "(stereo partly shown)", "hERG current change (%, negative = inhibition) at 10uM": 18.7}
{"smiles": "CNC(=O)c1[nH]cnc1C(=O)N[C@@H](CCCCNC(=O)OC(C)(C)C)C(=O)OC(C)(C)C", "hERG current change (%, negative = inhibition) at 10uM": 6.13}
{"smiles": "O=C(COC(=O)CCCNC(=O)c1ccc(Cl)cc1)NC1CC1", "hERG current change (%, negative = inhibition) at 10uM": 12.7}
{"smiles": "O=C(CCN1C(=O)c2ccccc2C1=O)N1CCN(Cc2ccccc2)CC1", "hERG current change (%, negative = inhibition) at 10uM": -22.8}
{"smiles": "CC(=O)NC(CC(=O)N(C)Cc1c(F)cccc1Cl)c1ccccc1", "note": "(stereo not shown)", "hERG current change (%, negative = inhibition) at 10uM": -4.66}
{"smiles": "CCNC(=O)C1CC(=O)N(Cc2ccc3c(c2)OCO3)C(=Nc2ccc(F)cc2)S1", "note": "(stereo not shown)", "hERG current change (%, negative = inhibition) at 10uM": 15.5}
{"smiles": "CCOC(=O)CC(=O)CSc1ncnc2c1cnn2-c1ccccc1", "hERG current change (%, negative = inhibition) at 10uM": 9}
{"smiles": "Cc1cccc(S(=O)(=O)N2CCC(CO)(Cc3ccccc3)CC2)c1", "hERG current change (%, negative = inhibition) at 10uM": -2.74}
{"smiles": "CC1=CC2=NC(=O)/C(=C\\c3cccn3CCOc3cccc(C)c3)C(=N)N2O1", "hERG current change (%, negative = inhibition) at 10uM": -1.66}
{"smiles": "Nc1cc(Cl)ccc1Nc1ccncc1", "hERG current change (%, negative = inhibition) at 10uM": 5.65}
{"smiles": "Cc1ccc(S(=O)(=O)N2CCN(Cc3nc4sc5c(c4c(=O)[nH]3)CCCC5)CC2)cc1", "hERG current change (%, negative = inhibition) at 10uM": -21.3}
{"smiles": "COc1cc2c(cc1NC(=O)C(C)OC(=O)C1CC(=O)N(Cc3ccco3)C1)oc1ccccc12", "note": "(stereo not shown)", "hERG current change (%, negative = inhibition) at 10uM": -1.77}
{"smiles": "CCc1ccc(-n2c(=O)c3c(C)c(C)sc3n(CC(=O)NCC3CCCO3)c2=O)cc1", "note": "(stereo not shown)", "hERG current change (%, negative = inhibition) at 10uM": 5.92}
{"smiles": "CC(=O)Nc1ccc(S(=O)(=O)N2CCCN(c3nc(C)cc(C)c3C#N)CC2)cc1", "hERG current change (%, negative = inhibition) at 10uM": 8.86}
{"smiles": "O=C(C1CCC(=O)N(C2CC2)C1)N1CCN(c2ccccc2Cl)CC1", "note": "(stereo not shown)", "hERG current change (%, negative = inhibition) at 10uM": 13.1}
{"smiles": "O=S(=O)(NCc1cccnc1)c1cccn1-c1ncc(C(F)(F)F)cc1Cl", "hERG current change (%, negative = inhibition) at 10uM": -9.38}
{"smiles": "CCCc1ccc(OCC(=O)Nc2cc(S(=O)(=O)CC)ccc2O)cc1", "hERG current change (%, negative = inhibition) at 10uM": -58.1}
{"smiles": "Cc1ccc(C(C)C)c(OCC(=O)NN=C2CCCCCCC2)c1", "hERG current change (%, negative = inhibition) at 10uM": 0.119}
{"smiles": "CCC(C)OC(=O)c1c(N)n(Cc2cccs2)c2nc3ccccc3nc12", "note": "(stereo not shown)", "hERG current change (%, negative = inhibition) at 10uM": -2.01}
{"smiles": "O=[N+]([O-])c1ccc2c(c1)CNc1ccccc1O2", "hERG current change (%, negative = inhibition) at 10uM": -16.7}
{"smiles": "COc1ccccc1NC(=O)Nc1ccc2[nH]c(=O)[nH]c2c1", "hERG current change (%, negative = inhibition) at 10uM": 23.3}
{"smiles": "CCOC(=O)c1ccc(NC(=O)N2CCc3ccccc32)cc1", "hERG current change (%, negative = inhibition) at 10uM": -3.07}
{"smiles": "Cc1cc(C(=O)NC(=S)Nc2cccc(C(=O)O)c2C)ccc1[N+](=O)[O-]", "hERG current change (%, negative = inhibition) at 10uM": 25.9}
{"smiles": "COCCN(C(=O)COC(=O)COc1ccc(Cl)c(C)c1)c1c(N)n(Cc2ccccc2)c(=O)[nH]c1=O", "hERG current change (%, negative = inhibition) at 10uM": -25.1}
{"smiles": "CCOc1ccc(S(=O)(=O)N2CCN(C)CC2)c(C)c1C", "hERG current change (%, negative = inhibition) at 10uM": -11.4}
{"smiles": "CCCCNC(=S)NNC(=O)c1cccnc1", "hERG current change (%, negative = inhibition) at 10uM": -4.29}
{"smiles": "COC(=O)N(c1ccccc1)P1(=S)OCCO1", "hERG current change (%, negative = inhibition) at 10uM": 17.5}
{"smiles": "CCCSc1ccc([C@@H]2[C@H]3C(=O)N(CC)C(=O)[C@H]3[C@]3(C(=O)OC)CCCN23)cc1.O=C(O)C(F)(F)F", "hERG current change (%, negative = inhibition) at 10uM": -14.7}
{"smiles": "COc1ccccc1S(=O)(=O)Cc1ccc(C(=O)N2CCN(c3ccccc3)CC2)o1", "hERG current change (%, negative = inhibition) at 10uM": -45.8}
{"smiles": "COc1ccc(OCc2cc(C(=O)NCC(C)(C)N3CCOCC3)no2)c(Cl)c1", "hERG current change (%, negative = inhibition) at 10uM": -31.8}
{"smiles": "O=c1c2ccccc2nc2n1CCO2", "hERG current change (%, negative = inhibition) at 10uM": 10.2}
{"smiles": "COC(=O)c1cc(S(=O)(=O)NCC2CCN(Cc3ccc(C)cc3)CC2)cn1C", "hERG current change (%, negative = inhibition) at 10uM": -52}
{"smiles": "COc1cccc(C(=O)CC(C#N)c2ccc(F)cc2)c1", "note": "(stereo not shown)", "hERG current change (%, negative = inhibition) at 10uM": -12.2}
{"smiles": "CCCn1c(/N=C/c2cc(OC)ccc2O)nc2ccccc21", "hERG current change (%, negative = inhibition) at 10uM": 15.5}
{"smiles": "O=C(Cc1c[nH]c2ccccc12)Nc1cccc(S(=O)(=O)N2CCCCC2)c1", "hERG current change (%, negative = inhibition) at 10uM": -13.6}
{"smiles": "Nc1ccccc1-[n+]1c(-c2ccccc2)cc(-c2ccccc2)cc1-c1ccccc1.[O-][Cl+3]([O-])([O-])[O-]", "hERG current change (%, negative = inhibition) at 10uM": -50.9}
{"smiles": "O=C1CCCN1c1ccc(S(=O)(=O)N2CCCCC2)cc1[N+](=O)[O-]", "hERG current change (%, negative = inhibition) at 10uM": 5.24}
{"smiles": "CSCCC(NC(=O)c1ccco1)C(=O)N1CCC(C(N)=O)CC1", "note": "(stereo not shown)", "hERG current change (%, negative = inhibition) at 10uM": 2.29}
{"smiles": "Cc1cccnc1NC(=O)C1CCC1", "hERG current change (%, negative = inhibition) at 10uM": 23.7}
{"smiles": "C/C(=N\\NC(=O)c1cccc(N2CCCC2=O)c1)c1ccc(N)cc1", "hERG current change (%, negative = inhibition) at 10uM": 12}
{"smiles": "Cc1cccc(CN2CCCC(C(=O)c3ccc4c(c3)OCO4)C2)n1", "note": "(stereo not shown)", "hERG current change (%, negative = inhibition) at 10uM": -49.2}
{"smiles": "CN(C(=O)COC(=O)c1ccc(Cl)c(N)c1)c1ccccc1", "hERG current change (%, negative = inhibition) at 10uM": 3.01}
{"smiles": "CC1(C)Cc2c(sc3ncn(N)c(=N)c23)CO1", "hERG current change (%, negative = inhibition) at 10uM": 9.31}
{"smiles": "COCCOC(=O)c1c(C)oc2ccc(OC(=O)c3ccc4c(c3)OCO4)cc12", "hERG current change (%, negative = inhibition) at 10uM": 14.6}
{"smiles": "CN(C)N1C(=O)CC(C)(c2ccc([N+](=O)[O-])cc2)C1=O", "note": "(stereo not shown)", "hERG current change (%, negative = inhibition) at 10uM": -0.575}
{"smiles": "O=[N+]([O-])c1cccc(CSc2nc3ccccc3[nH]2)c1", "hERG current change (%, negative = inhibition) at 10uM": -15.6}
{"smiles": "O=C(COC(=O)COc1ccc(Br)cc1)Nc1cccnc1Cl", "hERG current change (%, negative = inhibition) at 10uM": 17.8}
{"smiles": "CCn1c(SCC(=O)Nc2ccc3c(c2)OCCO3)nnc1-c1cccnc1", "hERG current change (%, negative = inhibition) at 10uM": 12.9}
{"smiles": "Cn1c(N2CCN(c3ccccn3)CC2)nc2c1c(=O)n(Cc1ccccc1Cl)c(=O)n2C", "hERG current change (%, negative = inhibition) at 10uM": 13.9}
{"smiles": "Cc1ccc(S(=O)(=O)Cn2nnnc2C(CC(C)C)N2CCN(c3ccccc3)CC2)cc1", "note": "(stereo not shown)", "hERG current change (%, negative = inhibition) at 10uM": 15.8}
{"smiles": "CCc1ccccc1NC(=O)CN1CCN(C(=O)c2cccc(-n3cnnn3)c2)CC1", "hERG current change (%, negative = inhibition) at 10uM": -65}
{"smiles": "COCCN(C(=O)CSc1n[nH]c(-c2ccc(OC)cc2)n1)c1c(N)n(Cc2ccccc2)c(=O)[nH]c1=O", "hERG current change (%, negative = inhibition) at 10uM": 3.21}
